Results on 19 molecules are retold here after the supplement of paper PMC12632987.

The full ranking holds about 4,500 sequences; the median of “median log2 fold change of GCK-ALFA target abundance (FLAG IP / Myc IP barcode read proportion)” is about 0.078, and the lowest 2% start at about -0.6. This is one part of the list.

The chains are these.
B1: GBRAP_160_4386 (protein)
chain: KEELEKLAKEIEELREEFEEEAKDLDAAETRTLAIGVLSEVAALVFENEAVSEETQDKIMEIIDEAIARLRANADAPPEEIVAITTEAFDKIIELVKEEK
B2: GBRAP_11_2854 (protein)
chain: KKEKLEEIAKLAEEAIKLLEKLKEEGVDNEELQKEIEEKLKKLLELVKKYTDEADVKLAEDALESFEKSKEDPENKQEYIDEAIAFLRVLLGNILLEIDE
B3: GBRAP_160_4358 (protein)
chain: SETAEKLIKEIKEATEEVISSIDKESLEEVAVIADGLFGEIAMEAVEDESMSDEVVDIIVEARDKIRELLKEGKDASPEEIKKGIKKITEEAIKKIKEAA
B4: GBRAP_80_6789 (protein)
chain: AEERLEAAVAEIEKVDPELAKLLREIIEIAREMGVSEETLAELAEAALKLAKVDVELAKEELEELKKELEELKEEGDSENAEATLRVYAGQMLLKVEELE
B5: GBRAP_35_5594 (protein)
chain: EDTELLFESTLDYAEALIEGIPELPVETVVALAKNLVKLAKELVKELKGNLEKLKKLAEALKKVIEAIKKHYPDNPEAQKAVEELEKALKEVEKAIKEAE
B6: GBRAP_184_5089 (protein)
chain: KTLEELVEAETEEELLKKVEEVIEKVKKEKANLTVLVKMPGLDVETALKILDILGKAKKEGWFKEATVGFAEAFTEEEADKIIEKADEQGVKVVLALNEE
B7: GBRAP_184_5163 (protein)
chain: KVLEETIKAKNLEEAKEKLKKVRERAKKTKAPLYVLLELEKPEKEILELIFKELGEILKEGLATEVVLEITSDLTEEQIDFAVEEADKAGVKLVLAIDDE
B8: GBRAP_128_3431 (protein)
chain: SQEEKVAQAKALIDAALTASTEEVYKLTKEFMKVFGTLSPEAREKVADYAISKLPQLTKEQLEAVADAIREQLPTLDPYAQELAADVLVEALNEAEELEE
B9: GBRAP_11_2888 (protein)
chain: KKEKLKELAELARKIAELIEKLLEEGTDNEELLKEIEKLLKELEKLTKEYADKGSQKLTEIAKELFKKALEDPENRKEYLEELLAAVRVLEGDYLLEYEE
B10: GBRAP_160_4271 (protein)
chain: SEEREELIEDAEEDREEILELVDEITPEEIRTFAVTEMGSHLLEAIDLGLVTDEEEDKLLQIIDDLEKELKAAENATKEEIKKIITEHYDKFIELLKKAK
B11: GBRAP_52_6372 (protein)
chain: REAEARAIVDELLALAEAGDEEGVEALVREVLASGDGALQAAVLREIRRRLEARDHPDPEALLRLAAIVADEVLEAEVDSPEVWAALTALAAAALALERA
B12: GBRAP_160_4621 (protein)
chain: SEKLKKALELVEEAKEEVLSLIPEVSAEQFAHFLDAEFGSVILYLLEEGYISEETADKMMEVVDEAVAYILANPDLSDEERRALVEETAEKIKEIIKENS
B13: GBRAP_184_5162 (protein)
chain: AVLERVLDAENLEELEAKLEEIRAEAAATKAALLVDLRLPEPKKEMLEAALRRLGEILREGLATDVTVHILNDLTEEQVDFAVELADEAGVRLVLELPEE
B14: GBRAP_52_6379 (protein)
chain: MVEEAKKLLKEAIELIMKGGPLEEVKEIAKKILEFDEETIEEAAKLLAEEILELSPEEAEAALDAAIELADILIEEGLPEEVASLIEAEIGKAAYEVLQR
B15: GBRAP_184_5203 (protein)
chain: MLKEYTIEFNNLEELKEKLKELLEEVKGFKGTLYIHVKAPEITKEMAEEIIKMVKEIKENGYATEIIVDIDGKVSEEVEDLLLEEFEKIGAKVVIALSEE
B16: GBRAP_184_5096 (protein)
chain: KTLERRIEAETLEEARAQIEAAVAEAAAAGAALTLLLDLEGISEEEIEELVRWLGELAAAAGVPAVTLGIDQLLSEEAADRVIATADELGIRLVLALPEE
B17: GBRAP_78_6625 (protein)
chain: EIKKLLEKALKKVEEAAKLATKIPSEEGIEILDHLIDAFEYIEEAIEEGGDLEKLEKALKHLEEALKEIEKLNNPELEELKKLVKEAIKLLKKAIELKKK
B18: GBRAP_11_2808 (protein)
chain: KKEELEKAAKLAKEAAEAVEKLLKEGVDNEELLEKIEKLLEELEKLAKEYLDKGSQKLVEIAKELLKKAREDPENAKEYLEQLLATLRVLEGNVLLEIEE
B19: GBRAP_42_5728 (protein)
chain: MYLVNLEVYVETKEEAEKAIKIWRELNEKYEKEYGIIINLTIVGPEETEEIAEEAEKESEEKAKKATKESDWVVVASSADEVEKAINIAVDLALEERKEE

In the assay the target is GABARAP, O95166. The experiment in a line: median log2 fold change of GCK-ALFA target abundance (FLAG IP / Myc IP barcode read proportion) (log2 ratio); each designed protein is fused to an ALFA-tag nanobody in HEK293 cells to bring the named protein to FLAG-tagged glucokinase (GCK); Myc marks an untargeted standard; higher = target protein stabilised (more abundant). As to conditions: target protein: 3xFLAG-MCP-GCK-ALFA reporter; HEK293 landing pad (RPLP). The procedure, abridged: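 HEK293 landing-pad cells received a recombined binder library fused to the ALFA nanobody and were induced with 2 μg mL^−1 doxycycline, then transfected with a plasmid encoding a FLAG-tagged target and a Myc-tagged standard. Lysates were collected after 48 h for anti-FLAG and anti-Myc immunoprecipitation, and the circular RNA barcodes were reverse transcribed, amplified and sequenced. Target abundance for each binder is the median log2 ratio of FLAG to Myc barcode read proportions. Barcodes had to reach a proportion of at least 10^−7 in both replicates, each binder needed at least 3 barcodes per replicate, a pseudocount of 10^−6 was applied, and the two replicates were pooled.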
Sequence of GABARAP, O95166 (O95166 whole entry, the tested form may be a part): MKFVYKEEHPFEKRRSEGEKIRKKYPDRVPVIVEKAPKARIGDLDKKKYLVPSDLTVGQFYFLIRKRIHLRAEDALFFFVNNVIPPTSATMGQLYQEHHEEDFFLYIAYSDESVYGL
As to B1, the “median log2 fold change” value was determined as 0.077.

Regarding B2, the “median log2 fold change” value was 0.322.

Consider B3, for which the “median log2 fold change” value came to 0.411.

For B4, the “median log2 fold change” value was found to be 0.0716.

As to B5, the “median log2 fold change” value turned out to be 0.389.

On to B6, for which the “median log2 fold change” value was determined as 0.024.

In the case of B7, the “median log2 fold change” value worked out at 0.0688.

Regarding B8, the “median log2 fold change” value stood at 0.0253.

As for B9, the “median log2 fold change” value was -0.0328.

As to B10, the “median log2 fold change” value was -0.0457.

B11: the “median log2 fold change” value was -0.638.

Take B12: the “median log2 fold change” value is -0.336.

Turning to B13, the “median log2 fold change” value was 0.179.

As for B14, the “median log2 fold change” value is -0.103.

On to B15, for which the “median log2 fold change” value amounted to 0.00126.

Consider B16, for which the “median log2 fold change” value is 0.0152.

For the molecule B17, the “median log2 fold change” value came out at 0.283.

Regarding B18, the “median log2 fold change” value came to 0.308.

Turning to B19, the “median log2 fold change” value is 0.212.
